Experimental data as given in paper PMC5427921, “PRL3 phosphatase active site is required for binding the putative magnesium transporter CNNM3” (Scientific Reports, 2017).

B1: PRL3 C49A (enzyme)
chain: not shown
notes: N-terminal extension Gly-Ser-His left after thrombin cleavage of the His tag; PRL3, human, […], point mutant; not shown: His6, N-terminal, cleaved
B2: PRL3 C104A (enzyme)
chain: not shown
notes: N-terminal extension Gly-Ser-His left after thrombin cleavage of the His tag; PRL3, human, […], catalytic cysteine mutated to alanine; Used in ITC and crystallised with the CNNM3 CBS-pair domain; also called C104A mutant; not shown: His6, N-terminal, cleaved
B3: PRL3 C49S (enzyme)
chain: not shown
notes: as for B1
B4: PRL3 C104S (enzyme)
chain: not shown
notes: N-terminal extension Gly-Ser-His left after thrombin cleavage of the His tag; PRL3, human, […], point mutant; also called C104S mutant; not shown: His6, N-terminal, cleaved

Target: T1, CNNM3 CBS-pair domain as a GST fusion (human, UniProt Q8NE01 309-452)
T1 construct: CBS-pair domain of human CNNM3; also called CBS-pair (Bateman) domain of CNNM3
Assay: ITC; syringe 160 μM PRL2 or PRL3, cell 16 μM CNNM3 CBS-pair domain as a GST fusion; 22 °C; 30 injections of 10 μl; fitted to a single set of identical sites
Details: both partners purified

CNNM3 CBS-pair domain as a GST fusion, sequence (Q8NE01 309-452): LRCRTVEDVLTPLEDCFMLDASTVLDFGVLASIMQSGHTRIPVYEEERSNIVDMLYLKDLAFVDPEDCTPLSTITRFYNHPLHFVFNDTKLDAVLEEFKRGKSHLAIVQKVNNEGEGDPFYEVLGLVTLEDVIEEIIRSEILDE

Row | Binder | fold loss of affinity against wild-type PRL3 | fold decrease of affinity against wild-type PRL3
1 | B1 | < 10 fold | 
2 | B2 |  | 16 fold
3 | B3 | < 10 fold | 
4 | B4 |  | > 100 fold
